From the supplement of paper PMC11543636
Each value is the number of isolates with that result; steps that no isolate showed are left empty. MIC of clinical M. tuberculosis isolates from a national drug-resistance survey, broth microdilution on MYCOTB, UKMYC5 or UKMYC6 plates (ranges differ by plate), read after 10-21 days; higher = less susceptible. Call: the paper's susceptible [S] / resistant [R] by the drug's critical concentration (it differs by plate for some drugs); calls for ofloxacin and levofloxacin are not shown. MYCOTB plates carry ofloxacin; the paper halves those MICs to stand for levofloxacin, and they are doubled back here. The top step of a plate is printed with and without '>' in the source and is marked '>=' when plain; the plain lowest step of rifampicin and kanamycin on MYCOTB is marked '<='. Isolates that the source marks as part of the WHO data set are not listed here.

Columns and labels:
Experiment in all cases: Isolates counted by MIC; Broth microdilution on commercial drug-susceptibility plates, read by two operators.
[1] = tested on: Mycobacterium tuberculosis lineage 2 on plate UKMYC5 (530 isolates)
[2] = tested on: Mycobacterium tuberculosis lineage 1 on plate MYCOTB (31 isolates)
[3] = tested on: Mycobacterium tuberculosis lineage 2 on plate MYCOTB (3815 isolates)
[4] = tested on: Mycobacterium tuberculosis lineage 3 on plate UKMYC6 (383 isolates)
[5] = tested on: Mycobacterium tuberculosis lineage 4 on plate UKMYC6 (615 isolates)
[6] = tested on: Mycobacterium tuberculosis lineage 4 on plate UKMYC5 (155 isolates)
[7] = tested on: Mycobacterium tuberculosis lineage 2 on plate UKMYC6 (1565 isolates)
[8] = tested on: Mycobacterium tuberculosis lineage 4 on plate MYCOTB (1613 isolates)
[9] = tested on: Mycobacterium tuberculosis lineage 4 on plate UKMYC6 (614 isolates)

CC[C@@H](CO)NCCN[C@@H](CC)CO [ethambutol]
isolate count
Conditions | [1] | [2] | [3] | [4] | [5] | [6] | [7] | [8]
MIC: 0.12 mg/L | 2 [S] | – | – | – | – | – | 2 [S] | –
MIC: 0.25 mg/L | – | – | – | 2 [S] | 1 [S] | 3 [S] | 13 [S] | –
MIC: 0.5 mg/L | 7 [S] | – | – | 9 [S] | 28 [S] | 3 [S] | 133 [S] | –
MIC: 1 mg/L | 305 [S] | 17 [S] | 2270 [S] | 162 [S] | 364 [S] | 99 [S] | 900 [S] | 899 [S]
MIC: 2 mg/L | 169 [S] | 11 [S] | 1130 [S] | 201 [S] | 207 [S] | 47 [S] | 428 [S] | 556 [S]
MIC: 4 mg/L | 31 [S] | – | 112 [S] | 9 [S] | 11 [S] | 2 [S] | 44 [S] | 65 [S]
MIC: 8 mg/L | – | 2 [R] | 95 [R] | – | 3 [R] | – | 35 [R] | 11 [R]
MIC: 16 mg/L | – | – | 32 [R] | – | – | – | 6 [R] | 8 [R]
MIC: >8 mg/L | 1 [R] | – | – | – | – | – | – | –
MIC: >32 mg/L | – | – | – | – | – | – | 1 [R] | 1 [R]
MIC: ≤0.5 mg/L | – | – | 170 [S] | – | – | – | – | 70 [S]
MIC: ≥8 mg/L | 15 [R] | – | – | – | – | 1 [R] | – | –
MIC: ≥32 mg/L | – | 1 [R] | 13 [R] | – | 1 [R] | – | 3 [R] | 3 [R]

CCc1cc(C(N)=S)ccn1 [ethionamide]
Conditions | isolate count
[1], MIC: 0.5 mg/L | 78 [S]
[1], MIC: 1 mg/L | 277 [S]
[1], MIC: 2 mg/L | 75 [S]
[1], MIC: 4 mg/L | 75 [S]
[1], MIC: >8 mg/L | 4 [R]
[1], MIC: ≤0.25 mg/L | 7 [S]
[1], MIC: ≥8 mg/L | 14 [R]
[2], MIC: 0.6 mg/L | 5 [S]
[2], MIC: 1.2 mg/L | 14 [S]
[2], MIC: 2.5 mg/L | 7 [S]
[2], MIC: 20 mg/L | 1 [R]
[2], MIC: ≤0.3 mg/L | 2 [S]
[2], MIC: ≥40 mg/L | 2 [R]
[3], MIC: 0.6 mg/L | 2440 [S]
[3], MIC: 1.2 mg/L | 728 [S]
[3], MIC: 2.5 mg/L | 91 [S]
[3], MIC: 5 mg/L | 66 [R]
[3], MIC: 10 mg/L | 38 [R]
[3], MIC: 20 mg/L | 13 [R]
[3], MIC: >40 mg/L | 1 [R]
[3], MIC: ≤0.3 mg/L | 387 [S]
[3], MIC: ≥40 mg/L | 52 [R]
[4], MIC: 0.5 mg/L | 69 [S]
[4], MIC: 1 mg/L | 239 [S]
[4], MIC: 2 mg/L | 61 [S]
[4], MIC: 4 mg/L | 4 [S]
[4], MIC: ≤0.25 mg/L | 7 [S]
[4], MIC: ≥8 mg/L | 3 [R]
[6], MIC: 0.5 mg/L | 11 [S]
[6], MIC: 1 mg/L | 81 [S]
[6], MIC: 2 mg/L | 41 [S]
[6], MIC: 4 mg/L | 18 [S]
[6], MIC: ≤0.25 mg/L | 1 [S]
[6], MIC: ≥8 mg/L | 3 [R]
[7], MIC: 0.5 mg/L | 692 [S]
[7], MIC: 1 mg/L | 674 [S]
[7], MIC: 2 mg/L | 73 [S]
[7], MIC: 4 mg/L | 18 [S]
[7], MIC: >8 mg/L | 16 [R]
[7], MIC: ≤0.25 mg/L | 58 [S]
[7], MIC: ≥8 mg/L | 34 [R]
[8], MIC: 0.6 mg/L | 653 [S]
[8], MIC: 1.2 mg/L | 724 [S]
[8], MIC: 2.5 mg/L | 90 [S]
[8], MIC: 5 mg/L | 35 [R]
[8], MIC: 10 mg/L | 10 [R]
[8], MIC: 20 mg/L | 3 [R]
[8], MIC: >40 mg/L | 1 [R]
[8], MIC: ≤0.3 mg/L | 88 [S]
[8], MIC: ≥40 mg/L | 9 [R]
[9], MIC: 0.5 mg/L | 140 [S]
[9], MIC: 1 mg/L | 292 [S]
[9], MIC: 2 mg/L | 143 [S]
[9], MIC: 4 mg/L | 16 [S]
[9], MIC: >8 mg/L | 2 [R]
[9], MIC: ≤0.25 mg/L | 11 [S]
[9], MIC: ≥8 mg/L | 10 [R]
